Measurements taken from the supplement of paper PMC3334620.
In all, about 33,000 sequences were measured (“E-score (-0.5 to 0.5)”: median about -0.043, highest 2% from about 0.37 on). The list shows a part of the results.

What follows are sequences tested against T1, Upc2 (UniProt Q12151) (assay: PBM E-score (8-mer binding enrichment) (E-score (-0.5 to 0.5)); higher = stronger / more preferred TF binding; most listed sequences are background and not binding sites). Details: protein concentration: 200 nM; construct: GST-full length.
T1 sequence: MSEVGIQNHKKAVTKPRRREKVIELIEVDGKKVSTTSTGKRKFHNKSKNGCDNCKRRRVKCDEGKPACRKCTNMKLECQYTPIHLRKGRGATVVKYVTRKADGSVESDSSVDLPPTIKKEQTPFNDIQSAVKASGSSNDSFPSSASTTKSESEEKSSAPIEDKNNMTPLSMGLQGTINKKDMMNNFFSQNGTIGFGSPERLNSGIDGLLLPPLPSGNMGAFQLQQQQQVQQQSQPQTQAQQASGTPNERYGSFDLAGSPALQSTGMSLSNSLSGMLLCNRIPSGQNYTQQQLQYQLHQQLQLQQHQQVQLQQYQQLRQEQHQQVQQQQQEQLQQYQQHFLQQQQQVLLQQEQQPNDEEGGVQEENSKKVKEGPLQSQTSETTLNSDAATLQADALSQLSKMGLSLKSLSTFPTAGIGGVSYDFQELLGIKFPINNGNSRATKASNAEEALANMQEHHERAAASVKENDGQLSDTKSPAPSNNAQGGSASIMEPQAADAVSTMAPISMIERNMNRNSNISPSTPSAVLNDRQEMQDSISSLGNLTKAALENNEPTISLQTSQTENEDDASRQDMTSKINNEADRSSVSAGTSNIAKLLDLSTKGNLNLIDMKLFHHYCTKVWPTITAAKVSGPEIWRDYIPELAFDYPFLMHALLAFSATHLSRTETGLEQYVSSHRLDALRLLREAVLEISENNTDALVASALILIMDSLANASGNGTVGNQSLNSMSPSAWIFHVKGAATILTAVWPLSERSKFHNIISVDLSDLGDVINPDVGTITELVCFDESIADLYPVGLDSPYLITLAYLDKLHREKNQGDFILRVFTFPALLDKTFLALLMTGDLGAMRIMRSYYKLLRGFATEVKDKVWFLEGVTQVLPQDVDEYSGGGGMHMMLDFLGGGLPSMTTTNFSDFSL
In short: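 For each ungapped eight-base word taken together with its reverse complement, the Universal PBM Analysis Suite assigned an E-score. Binding data came from GST-tagged yeast transcription factors, applied at about 100-200 nM, on universal all-10-mer Agilent arrays made double-stranded by primer extension. Fluorescent anti-GST marked bound protein, and scans were normalised with masliner.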

Sequence	PBM E-score
ACTATCGA	0.0346
ATAAAACG	0.28
AGGGGTGA	-0.236
CAAACGGG	0.351
AATGTCCC	-0.303
AGACCGGC	-0.0634
AATCCGAA	0.0902
GCATTTCA	-0.103
GATATGGA	0.047
AGGTTCGG	0.022
AGGCGACA	-0.168
ATACATTA	0.0264
ATCCGTGG	-0.2
AAGCTGGC	0.0255
CAGGGAAA	-0.0386
GCGACCAC	0.0332
AGAACCGA	0.00113
GTACCCAA	0.188
CACATCTA	0.0208
GACTAGTC	-0.19
AGTATACC	0.124
CAGAACCC	0.122
CTGCCCTC	-0.24
GCGCGGGA	0.0432
GCGCCACC	-0.24

Sequence	PBM E-score
ATTTCATC	-0.129
CAGGAATC	-0.121
TATAATGA	0.26
AGAACCAG	-0.117
GGTTCAAA	0.00821
ATTAAGTG	0.0863
CGCACCAG	0.0905
CGTATCCC	0.315
GTTTTCTA	0.0906
ATAATCCG	0.00884
GCCCTGTA	0.0279
AGTACTTC	-0.0175
GAAAAAGA	0.0701
GCAAAAAA	0.101
ATTCCGGA	-0.126
GCGTTACA	-0.148
ATCTGTGG	-0.294
GCAGCAGA	-0.0595
TACAGGAA	0.0741
CTACCTTA	0.0109
ATGATTCG	0.12
GAGTTCTA	-0.141
AGCGTGAT	0.028
GTACGTCA	0.201
CCTTTCAC	0.014

Sequence	PBM E-score
ATTGGCCG	-0.187
CAACGCTC	-0.0408
CAGAGGAG	-0.241
CCTTGGCC	-0.352
GCATATTA	0.0991
GCGTTTCC	0.0493
AGTCGTAG	0.291
AGGCGAAG	-0.259
CCGCCCAA	-0.13
ATTTGCAG	-0.0997
GCGTTCCA	0.11
CAGACGCC	-0.11
AAACATCG	-0.033
CCTAAATC	0.121
CATAAAAA	0.0889
GGATTCAA	-0.175
CAGCATAA	-0.0242
ACATTGCT	-0.137
TGGGGAAA	-0.167
CGGTCCTA	-0.0204
AATTCTAA	0.0439
CTTGTTGA	0.0628
AGTAGACT	-0.15
GAATACTA	0.104
ATAGGTTA	0.0241

Sequence	PBM E-score
GACGTTCC	-0.00278
TAGCCACA	0.0857
TCTTCCAA	-0.172
GACGAGGC	0.0687
AACACCTT	0.0752
ACACCGCG	0.117
CCTGTGAG	-0.244
GAACCGGC	-0.0869
CCTTATCA	-0.069
ACATTCTC	0.0478
ACCCAGAC	0.0954
CGTGCGGA	-0.0318
AATCCGTG	-0.0531
CAGGAGAA	-0.265
GGTACACA	-0.235
CACAGATG	-0.186
CTAGGTTC	-0.149
CAGGGCAG	-0.181
AGTATTCG	0.215
CAAAGTTC	-0.0961
CTTATTAA	0.0329
TACTAACA	0.02
CGGCGGCC	-0.0473
CATTGTGC	-0.18
GCCCATCC	0.0466

Sequence	PBM E-score
AATCGGCT	-0.0727
GAGTTCCC	-0.157
AGAGTATA	0.156
ATGAGCCG	-0.102
ACCTTCTG	-0.204
AGAGGAAT	-0.0712
GATGCGTA	0.229
CAGTTCTC	0.0285
CAAGCTTG	-0.233
ATGCCCTG	-0.291
AGACTTTC	-0.181
CTATCTCA	-0.137
AAACCCCC	-0.197
ACATAATC	0.155
GTGTACTA	0.127
GTCGGAAA	0.191
GCGCCGCC	0.109
ATTCTACG	0.268
GTAAGGTA	0.128
ACAGCGCC	-0.0962
AAGACCTA	-0.153
ACAGGTCA	0.0278
CTCGGGTA	0.217
CGCCCGTC	-0.143
AATACGGG	0.229

Sequence	PBM E-score
ATTCCCCG	-0.0939
CATTTGAG	0.0275
CACTGCTG	-0.101
AATTTCAT	0.00289
CGGGACCA	-0.274
AAAAAGCG	0.0788
ACCGACAA	0.057
GGGGCTCA	-0.285
CACTTACA	-0.0593
CCCTATCC	-0.0919
AAAGAAAT	0.0386
GCTGTCGA	-0.0886
CAACAGTA	-0.0139
AATATTCA	-0.076
AAGTCCCA	-0.0974
CTGAGTGA	-0.0657
AGTAGATC	-0.13
CACAAATC	-0.00356
CATTGGTC	-0.202
AACGAAAG	0.383
GGGGTGGA	-0.298
AAAGTTCC	-0.185
GTTTTCGA	0.0699
CACCTCTC	-0.242
CTAAGATA	-0.179

Sequence	PBM E-score
CAGTTCGG	0.013
ATGTGTCG	0.139
CGTGAGCC	-0.0588
GAGCCGGC	-0.101
TCATGAAA	0.0303
AGTTTATG	-0.118
ACCTTGGG	-0.219
AGGTGGCG	-0.158
TGTGTGAA	-0.107
ACTTTCCG	-0.1
AGCAATAC	0.151
ATCAATTA	0.126
AATCTTAT	0.0171
AACATGTA	0.15
TCTACAAA	-0.0898
AATGTAGT	-0.0884
ACTTGAGA	-0.0234
AGACCCCT	-0.304
ATCAATGA	0.0601
GGCCCACC	-0.0985
CGGACGAA	0.148
ACGGGCCC	0.0647
GGACTTGA	-0.174
ATTCTTGG	-0.111
ATTAAACC	-0.0396

Sequence	PBM E-score
GACCCGCA	-0.017
CCTACTCC	-0.318
GCGCTCCA	-0.195
ACGTACTA	0.149
CGATTCTC	-0.065
GAGGGGAA	-0.0713
ATCGTCGC	0.155
CAGCGCGG	-0.191
ATCCTCCG	0.0685
GACAATAA	-0.0324
CTAGTAAC	-0.18
CGACACTC	0.141
ACCTCCTC	-0.191
CGCATCGC	0.148
GAATCTCC	-0.039
CCCTTCTC	-0.165
CTTGTGTA	0.052
CCGAAAGA	0.00915
ATTGATGG	-0.0752
CGACGGAG	-0.0414
CACCGGTG	-0.149
CCTACGAA	0.228
GAAGGTCA	-0.222
CCGTTCAC	0.291
ACATCTGG	-0.0529

Sequence	PBM E-score
GAAGGAGC	-0.102
CTCCACGA	0.0312
GAATTGAC	-0.0563
ATGCCTTG	-0.103
CCAGGGCG	-0.0863
AATATAGG	0.0495
TCGAACAA	0.152
CGTGGGAC	-0.00808
CTGGCTCA	-0.137
GCGGGTCC	-0.0393
GCTATTCC	-0.226
CGTCCTTA	-0.1
AAAGAGCG	0.141
AACAAGCC	-0.201
GCCCCACA	0.0246
AGTTTGTC	-0.139
ATCGCTAC	0.133
ACGGTATG	0.0901
AGTTACCG	0.0774
